Laboratory results published in US10822376B2, “Biologically active peptides” (Baxalta Incorporated, priority 2008, dated 2020).
Some of these results come from one statement about several compounds together. *1 amine or outer side, *2 acyl side, *3 side chain or, on linkers, in order; H or OH if unused. Where a SMILES comes first, the peptide text is derived from it. Bridges are numbered along the chain shown (N, C = ends). Roman numbers before positions name the chains, in order. [ ]: non-standard residue; d: D form. The star is where a group is joined. NH(CH2)3(OCH2CH2)2O(CH2)3NH = C(CN[*:1])COCCOCCOCCCN[*:2]; X2 = NCCCC[C@H](N)C(=O)NCCCOCCOCCOCCCN*; X1 = NC(=O)CCC(=O)NCCCOCCOCCOCCCN*; Suc = O=C(CCC(=O)[*:2])[*:1]; X3 = CC(=O)NCCCOCCOCCOCCCN*

Legend:
[1] = tested on: human FVIII inhibited plasma; test: Defined Intrinsic Thrombin Generation Assay (DITGA, triggered by FXIa and phospholipids); assay type: biochemical; settings: 100 μM; summary
From the text: (§1) The intrinsic pathway of thrombin generation may be assayed in a thrombin generation assay by including FXIa and phospholipids. In such an assay, which is similar to an activated partial thromboplastin time (aPTT) test, thrombin generation is solely directed through the intrinsic pathway, and is FVIII dependent. A suitable assay is the Defined Intrinsic Thrombin Generation Assay described below. Alternatively, by employing low concentrations of TF and phospholipids instead of FXIa and phospholipids, thrombin is generated by both the extrinsic (tissue factor) and the intrinsic pathways. This form of the thrombin generation assay is the more physiologic one, as both thrombin generation pathways are involved; it is partially FVIII dependent. A suitable assay is the Defined Dual-Pathway Thrombin Generation Assay.
The Defined Intrinsic Thrombin Generation Assay is performed as follows. FVIII activity of human plasma is inhibited by incubating (2 hours, 37° C.) 40 μl of human normal plasma with 10 μl heat inactivated anti-human FVIII plasma raised in goat (600 BU/ml, 6 hours incubated at 56° C.). […] Instead of FVIII-inhibited plasma, FVIII inhibitor patient plasma or several depleted plasmas can be used. The micro-plate is immediately put into a GENios Plus (Tecan) or Safire 2 (Tecan) fluorescence reader and the fluorescence signal (ex 340 nm/em 440 nm) is followed kinetically by reading the plate every 21 seconds.
For calculation of activity equivalent units experiments are performed with dilutions of Factor Eight Inhibitor Bypassing Agent (FEIBA, Baxter AG), Immunate (human FVIII, purified plasma derived) reference standard (Baxter AG) or Recombinate standard (human FVIII, purified recombinant, Baxter AG). A linear fit of the logarithm of FEIBA (FVIII) concentration plotted against thrombin generation time at peak thrombin results in a standard curve. With this curve FEIBA (FVIII) equivalent activity is calculated for a defined peptide concentration. […] Thus, where a concentration of 100 μM is given, the actual concentration in the final assay volume in 40 μM.
Compounds were screened using the “Defined intrinsic thrombin generation assay” in which thrombin generation was quantified in vitro in FVIII-inhibited human plasma in the presence of Factor XIa and phospholipid vesicles. Further compounds were screened in the above assay, and in the “Defined dual-pathway thrombin generation assay” using tissue factor and phospholipids instead of Factor XIa and phospholipids, as described in the specific description.
Various concentrations of each peptide were tested in the defined intrinsic thrombin generation assay using human FVIII inhibited plasma.

[2] = Plasma stability; settings: summary
[3] = tested on: FVIII inhibited plasma; test: Defined Dual-Pathway Thrombin Generation Assay (DDPTGA, reagent C high), FVIII inhibited plasma; assay type: biochemical, human; settings: summary
From the text: as §1
Preferably, Reagent C high is used.
Tissue factor dependency of peak thrombin generation and thrombin peak time was characterised in a composition containing a fixed concentration of phospholipid (namely 3.2 μM). Phospholipid dependency was characterised in a composition containing a fixed concentration of tissue factor (namely 7.2 μM). Peak time (time to peak thrombin generation) was dependent on the concentration of phospholipid or tissue factor. The final version of this assay is as described in the specific description, in which 10 μl reagent C high containing (32 μM phospholipid and 71.6 μM tissue factor) is used in a total volume of 100 μl.
Further studies were conducted using 3.2 μM phospholipid and 7.2 μM tissue factor in FVIII deficient or inhibited plasma, to characterise the effect on peak thrombin generation and thrombin peak time of various coagulation factor preparations. These studies provided a basis from which to compare the efficacy of the compounds in the assay. Briefly, rFVIII (Recombinate® FVIII from Baxter) was tested at 0, 5, 10, 20, 40 and 80 mU/ml in FVIII deficient plasma. FEIBA was tested at 0, 8, 16, 31, 63 and 125 mU/ml in FVIII inhibited plasma. FVIIa was tested at 0, 0.1, 0.4, 1.6, 6.3 and 25 nM in FVIII inhibited plasma. […] Peak thrombin increased and both the lag time and the thrombin peak time decrease.

Molecule	Thrombin generation activity (FEIBA equivalent) [1]	Stability following incubation for 30 minutes in human plasma [2]	other results
Ac-RMDFDVWDLYFEIVW-NH2 [Peptide A03]	at least 1200 mU/mL FEIBA	at least 50%	–
Ac-VWDLYFEIVW-NH2 [Peptide A19]	–	at least 50%	–
CC[C@@H](C)[C@@H](NC(=O)[C@@H](CO)NC(C)=O)C(=O)N[C@H](CCSC)C(=O)N[C@H](Cc1ccccc1)C(=O)N[C@H](Cc1c[nH]c2ccccc12)C(=O)N[C@H](Cc1ccc(O)cc1)C(=O)N[C@H](CC(=O)O)C(=O)N[C@H](CCC(=O)O)C(=O)N[C@H](Cc1ccc(O)cc1)C(=O)N[C@H](CCC(=O)O)C(N)=O [Peptide B07, Ac-simfwydeye-NH2] (Ac-[dS][dI][dM][dF][dW][dY][dD][dE][dY][dE]-NH2)	–	at least 50%	–
CSCC[C@H]1NC(=O)[C@@H](Cc2ccc(O)cc2)NC(=O)[C@H](NC(=O)CCC(=O)NCCCOCCOCCOCCCNC(C)=O)CSSC[C@H](C(=O)N[C@H](Cc2ccc(O)cc2)C(=O)N[C@H](CCC(=O)O)C(N)=O)NC(=O)[C@@H](CC(=O)O)NC(=O)[C@@H](Cc2ccc(O)cc2)NC(=O)[C@@H](Cc2c[nH]c3ccccc23)NC(=O)[C@@H](Cc2ccccc2)NC1=O [Peptide B05, Ac-TTDS-(cymfwydc)-ye-NH2] ({X3-Suc}-[dC][dY][dM][dF][dW][dY][dD][dC][dY][dE]-NH2; disulfide 1-8)	–	at least 50%	–
CC[C@@H](C)[C@@H](NC(=O)[C@@H](CS)NC(C)=O)C(=O)N[C@H](CCSC)C(=O)N[C@H](Cc1ccccc1)C(=O)N[C@H](Cc1c[nH]c2ccccc12)C(=O)N[C@H](Cc1ccc(O)cc1)C(=O)N[C@H](CC(=O)O)C(=O)N[C@H](CCC(=O)O)C(=O)N[C@H](Cc1ccc(O)cc1)C(=O)N[C@H](CCC(=O)O)C(N)=O [Peptide B03, Ac-cimfwydeye-NH2] (Ac-[dC][dI][dM][dF][dW][dY][dD][dE][dY][dE]-NH2)	at least 1200 mU/mL FEIBA	–	Peak IIa activity (FEIBA equivalent) ([3]; 50 or 100 μM): at least 10 mU/mL FEIBA
CC[C@@H](C)[C@@H](NC(=O)[C@@H](CSSC[C@@H](NC(C)=O)C(=O)N[C@@H](C(=O)N[C@H](CCSC)C(=O)N[C@H](Cc1ccccc1)C(=O)N[C@H](Cc1c[nH]c2ccccc12)C(=O)N[C@H](Cc1ccc(O)cc1)C(=O)N[C@H](CC(=O)O)C(=O)N[C@H](CCC(=O)O)C(=O)N[C@H](Cc1ccc(O)cc1)C(=O)N[C@H](CCC(=O)O)C(N)=O)[C@H](C)CC)NC(C)=O)C(=O)N[C@H](CCSC)C(=O)N[C@H](Cc1ccccc1)C(=O)N[C@H](Cc1c[nH]c2ccccc12)C(=O)N[C@H](Cc1ccc(O)cc1)C(=O)N[C@H](CC(=O)O)C(=O)N[C@H](CCC(=O)O)C(=O)N[C@H](Cc1ccc(O)cc1)C(=O)N[C@H](CCC(=O)O)C(N)=O [Peptide B04, Disulphide-Dimer(Ac-cimfwydeye-NH2)2] (I: Ac-[dC][dI][dM][dF][dW][dY][dD][dE][dY][dE]-NH2 / II: Ac-[dC][dI][dM][dF][dW][dY][dD][dE][dY][dE]-NH2; disulfide I:1-II:1)	–	–	Peak IIa activity (FEIBA equivalent) ([3]; 50 or 100 μM): at least 10 mU/mL FEIBA
CC[C@H](C)[C@H](NC(=O)[C@H](CCC(=O)O)NC(=O)[C@H](Cc1ccccc1)NC(=O)[C@H](Cc1ccc(O)cc1)NC(=O)[C@H](CC(C)C)NC(=O)[C@H](CC(=O)O)NC(=O)[C@H](Cc1c[nH]c2ccccc12)NC(=O)[C@@H](NC(=O)[C@H](CC(=O)O)NC(=O)[C@H](Cc1ccccc1)NC(=O)[C@H](CCC(=O)O)NC(=O)[C@H](CCSC)NC(=O)[C@H](CCCNC(=N)N)NC(=O)CCC(=O)NCCCOCCOCCOCCCN)C(C)C)C(=O)N[C@H](C(=O)N[C@@H](Cc1c[nH]c2ccccc12)C(=O)NCCCOCCOCCOCCCNC(=O)CCC(N)=O)C(C)C [Peptide A08] ({NH(CH2)3(OCH2CH2)2O(CH2)3NH-Suc}-RMEFDVWDLYFEIVW-X1)	at least 1200 mU/mL FEIBA	at least 50%	–
CSCC[C@H]1NC(=O)[C@@H](Cc2ccc(O)cc2)NC(=O)[C@H](NC(=O)CCC(=O)NCCCOCCOCCOCCCNC(=O)[C@@H](N)CCCCN)CSSC[C@H](C(=O)N[C@H](Cc2ccc(O)cc2)C(=O)N[C@H](CCC(=O)O)C(N)=O)NC(=O)[C@@H](CC(=O)O)NC(=O)[C@@H](Cc2ccc(O)cc2)NC(=O)[C@@H](Cc2c[nH]c3ccccc23)NC(=O)[C@@H](Cc2ccccc2)NC1=O [Peptide B06, K-TTDS-(cymfwydc)-ye-NH2] ({X2-Suc}-[dC][dY][dM][dF][dW][dY][dD][dC][dY][dE]-NH2; disulfide 1-8)	–	at least 50%	–
Ac-PMKFDVWDLYFEIVW-NH2 [Peptide A02]	at least 1200 mU/mL FEIBA	–	–
Ac-WDLYFEISW-ttds-E [Peptide A15]	–	–	Peak IIa activity (FEIBA equivalent) ([3]; 50 or 100 μM): at least 10 mU/mL FEIBA
H-ERMEFDVWDLYFEIVW-NH2 [Peptide A09]	at least 1200 mU/mL FEIBA	–	Peak IIa activity (FEIBA equivalent) ([3]; 50 μM): at least 10 mU/mL FEIBA
